Several values for one entry are separate records, joined by “and”; a condition that tells them apart may be missing. Equal values may be shown once. Hit rate of the full screen: of about 340,000 compounds, about 2,100 (0.62%) were called active. Inconclusive results, whose numbers are uncertain, are shown with a selection of clear calls.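 The calls were made as follows: active = first-screen hits whose inhibition reached a set limit at any dose in the follow-up dose series; inconclusive = inhibition above the set first-screen limit but never retested; inactive = the rest.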
molecular target: Rac GTPase-activating protein 1 (Homo sapiens) (UniProt Q9H0H5); test: blockers of MgcRacGAP-driven Rac1 GTP hydrolysis – biochemical, ADP Hunter fluorescence, primary and confirmatory, confirmation (AID 624330); conditions: MgcRacGAP-stimulated Rac1 GTP hydrolysis, at 30 µM, active compounds read high, GST-tagged Rac1 F28L mutant substrate;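 also: fluorescence reports GDP produced by GAP-driven GTP hydrolysis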
UniProt Q9H0H5, sequence (Q9H0H5 whole entry, looked up): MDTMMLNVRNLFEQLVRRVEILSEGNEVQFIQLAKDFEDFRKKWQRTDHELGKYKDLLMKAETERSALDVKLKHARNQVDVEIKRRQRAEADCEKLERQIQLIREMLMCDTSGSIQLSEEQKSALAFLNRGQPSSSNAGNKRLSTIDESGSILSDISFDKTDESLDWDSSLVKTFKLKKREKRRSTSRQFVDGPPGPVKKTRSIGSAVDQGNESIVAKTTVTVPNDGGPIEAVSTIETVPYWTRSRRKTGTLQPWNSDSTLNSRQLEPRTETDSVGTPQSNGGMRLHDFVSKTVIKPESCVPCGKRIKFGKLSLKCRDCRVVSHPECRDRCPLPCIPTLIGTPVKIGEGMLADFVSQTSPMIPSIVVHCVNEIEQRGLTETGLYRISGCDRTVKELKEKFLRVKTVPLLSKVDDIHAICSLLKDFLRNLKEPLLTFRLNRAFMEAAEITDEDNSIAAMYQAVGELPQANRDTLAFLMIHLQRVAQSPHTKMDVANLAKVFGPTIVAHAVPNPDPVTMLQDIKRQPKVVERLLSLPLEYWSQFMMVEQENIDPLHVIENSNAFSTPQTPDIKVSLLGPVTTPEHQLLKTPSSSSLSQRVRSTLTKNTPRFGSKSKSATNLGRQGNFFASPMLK

inhibition, inconclusive:
COc1cc(CN2CCc3ccccc3C2)ccc1O 34%
O=C(c1ccccc1)c1c2c(cc3sc4ccccc4[n+]13)-c1cccc3cccc-2c13 32.3%
C=C(CN(C)C)C(=O)c1ccc2c(c1)OCO2 37.4%
O=C(O)c1ccccc1C(=O)NC1=NN(c2ccccc2)CC1 34.5%
COc1ccc(N2CCN(Cc3nc4ccccc4c(=O)[nH]3)CC2)cc1 32.6%
Cc1cc(Cl)c(OCCOCCN2CCCCC2)c(Br)c1 32.5%
COCC(C)NCc1cccc([N+](=O)[O-])c1 (stereo not drawn) 26.9%
CCOc1ccc2nc3cc(NCc4ccc(OC)cc4)ccc3c(N)c2c1 71%
COCCNc1c(-c2ccc(O)cc2)nc2ccc(Cl)cn12 56.2%
CC(/C=N/n1c(-c2ccco2)n[nH]c1=S)=C\c1ccco1 35.1%
COc1cc(/C=C2\SC(=S)N(C(Cc3ccccc3)C(=O)O)C2=O)ccc1O (stereo not drawn) 43.5%
CCN(CC)c1ccc(N=C2C(=O)Nc3ccccc32)cc1 37.2%
Cc1cccc(/C=N/n2c(-c3ccncc3)n[nH]c2=S)c1 35.7%
O=C1NN(c2ccccc2)C(=O)/C1=C/c1ccc(-c2ccc(Cl)c(C(=O)O)c2)o1 36.8%
Cn1c(SCC(=O)c2ccc(O)c(O)c2)nnc1-c1cccs1 34.9%
CCc1nc2ccccc2c(NC(=O)CN2CCC(C)CC2)c1C 46.1%
Cc1ccc2c(c1)NC(=O)c1cccnc1N2 113%
Cc1c(Br)c(=O)oc2c(Br)c(O)c(O)cc12 45%
N#C/C(=C/c1ccc(N2CCCCCC2)o1)c1cccc(F)c1 32.9%
COc1cccc(C(=O)NC2C(=O)N3C(C(=O)O)=C(COC(C)=O)CSC23)c1 (stereo not drawn) 32.6%
COc1cc(/C=N/NC(=O)c2ccncc2)ccc1O 68.4% and 67.8%
COc1cc(/C=N\NC(=O)c2ccc(-c3ccccc3)cc2)cc(OC)c1O 34%
COc1ccc(OC)c(CN2CCC(C(=O)N(C)CCc3ccc(OC)c(OC)c3)CC2)c1 33.2%
COc1cc2c(cc1O)CC[n+]1cc3c(OC)c(OC)ccc3cc1-2 69.8%
COc1ccccc1Oc1cn[nH]c1-c1ccc(O)cc1O 69.2%
CC(C)(C)/C(O)=C/c1nc2cc(Cl)ccc2oc1=O 97.2%
O=C(O)c1cccc(-c2ccc(/C=c3/sc4nc5ccccc5n4c3=O)o2)c1 32.8%
Cc1cc([N+](=O)[O-])nn1CC(=O)N/N=C/c1ccc(O)cc1O 32.7%
C(=Nc1ccc(Nc2ccccc2)cc1)c1ccc2ccccc2c1 37.6%
COc1cc(/C=C2\SC(c3ccc(C)cc3)=NC2=O)ccc1O 33.8%
CCN(CC)c1ccc(NC(=O)c2cnn(CC)c2)cc1 60.4%
O=C(Nc1ccc(Nc2ccccc2)cc1)c1ccco1 35.9%
Nc1c(C(=O)NCC2CCCO2)sc2nc3c(c(-c4ccco4)c12)CC/C3=C\c1ccco1 (stereo not drawn) 59.6%
COc1cc(NCCCCCCN)c2ncccc2c1OC 35.3%
CCc1cc(SC#N)cc(C)c1NC(=O)CCl 33.8%
COc1cc(/C=C2/C(=O)NN(c3ccc(Cl)cc3)C2=O)cc(OC)c1O 44.4%
NS(=O)(=O)c1cc(C(=O)NC2CCSc3ccccc32)ccc1Cl (stereo not drawn) 33.9%
Cc1ccc(S(=O)(=O)N2CCOCC2)cc1NC(=O)CNC1CCCC1 34.9%
COc1ccc(N2CCC(CNC(=S)Nc3c(C)cccc3C)C2)cc1 (stereo not drawn) 43.1%
CCCCCn1c(=O)c2ccccc2n2c(=S)[nH]nc12 83.6%
Cc1ccc(S(=O)(=O)N2CCN(CC(=O)N/N=C\c3ccc(O)c(O)c3)CC2)cc1 55.1%
Cc1ccc(OCCCN(C)C)c(Br)c1 34%
O=c1nc(/C=C/c2ccc(O)c(O)c2)oc2ccccc12 66.3%
O=C(NCc1ccc2c(c1)OCO2)C1CC(=O)N(c2ccc(O)cc2)C1 (stereo not drawn) 76.9%
O=c1c2c(nc3n1CCCCC3)sc1c(O)cccc12 45.6%
O=C(C(c1ccccc1)c1ccccc1)N1CCN(Cc2ccccn2)CC1 34.7%
NC(=O)c1ccc(-n2nnnc2SCC(=O)c2ccc(O)c(O)c2)cc1 50.6%
COc1cc2c(cc1NC(=S)Nc1cccc(C)c1)oc1ccccc12 87.4%
Cc1ccc(C(=O)NCC(=O)OC(C)C(=O)Nc2ccc(N(C)C)cc2)cc1C (stereo not drawn) 43.6%
Cn1c(SCC(=O)N/N=C/c2ccc(O)c(O)c2)nc2ccccc21 84%
Nc1cc(C(=O)O)c(N)c2c1C(=O)c1ccccc1C2=O 43.1%
CN(C)c1ccc(NC(=O)CCCCCn2nnc3ccccc3c2=O)cc1 33.4%
O=C(Oc1cccc2c(O)cccc12)c1ccccc1 32.5%
COc1cc2ccc(=O)oc2c(O)c1O 35.6%
Cc1ccc2cc3c(N)[nH]nc3nc2c1 44.1%
CC(C)Oc1ccc(C(=O)Nc2ccc(N(C)C)cc2)cc1 50.9%
Cc1ccccc1S(=O)(=O)Oc1cccc2c(O)cccc12 32%
C=CC(=O)Nc1ccc(Nc2ccnc(Nc3ccc(N4CCN(C)CC4)cc3)n2)cc1 57.2%
CCOC(=O)N1CCN(Cc2c(F)cccc2F)CC1 35.2%
Oc1ccc(-c2cn3cc(C(F)(F)F)ccc3n2)cc1 133%
Cc1cc2nc3s/c(=C/c4ccc(-c5ccccc5C(=O)O)o4)c(=O)n3c2cc1C 32.1%
O=C(CCc1ccc(O)c(O)c1)N/N=C/c1cc2c(cc1[N+](=O)[O-])OCO2 57.3%

inhibition, inactive:
COc1cc(C(C)=O)ccc1OC(=O)c1cc2cccc(OC)c2oc1=O 2.6%
C=CCNc1nnc(Cc2ccc(F)cc2)c(=O)[nH]1 4.71%
COc1cccc(/C=N/NC(=O)CNC(=O)c2cccnc2)c1O 5.08%
COc1ccc(/C=C/C(=O)Oc2cc(C)[nH]c(=O)c2[N+](=O)[O-])cc1OC -3.35%
O=c1cc(O)c2ccc(O)cc2o1 11.2%
CCOc1ccc(NC(=S)N(Cc2ccc(N(C)C)cc2)Cc2ccco2)cc1 1.67%
Nc1ccc(-c2nc3cc(N)ccc3o2)cc1 17.5%
CCCn1c(=O)c2ccccc2n2c(SCCOc3ccccc3)nnc12 4.68%
CCN=C1S/C(=C\c2cc(Cl)c(OC)c(OC)c2)C(=O)N1CC 4.7%
C/C(=N\N(c1ccccc1)c1ccccc1)c1ccc(N)cc1 18.1%
CN1CCN(CCCC(=O)c2ccc(C3CCCC3)cc2)CC1 6.04%
O=C(CC1CCCC1)Nc1ccc(Cl)c(S(=O)(=O)N2CCOCC2)c1 1.97%
CCN(CC)S(=O)(=O)c1ccc(N/N=C/c2cccnc2)nc1 2.22%
Cc1ccc(S(=O)(=O)N2CCN(C(=O)N(C)C)CC2)cc1 2.84%
CCN1/C(=C/c2ccc3cccc(C)c3[n+]2CC)Sc2ccccc21 17.8%
COc1cc(/C=C/C(=O)OCC(=O)Nc2cc(C)c(C)cc2[N+](=O)[O-])ccc1O 9.32%
CC(=O)N(C1=C(N)C(=O)c2ccccc2C1=O)c1ccccc1 9.97%
Cc1cc(C)c2ccc(=O)n(CC(=O)N/N=C/c3ccccc3Cl)c2n1 5.91%
CCn1c(C)cc(/C=C2/SC(=O)N(CC(=O)N3CCCC3)C2=O)c1C 8.19%
c1ccc(-c2ncc3ccccn23)cc1 12%
Cc1sc2nc(SCC(=O)N3CCN(CCO)CC3)n(-c3ccccc3)c(=O)c2c1C 6.94%
Cc1nc2ccccc2n1CC(=O)c1ccccc1 15.2%
C=Cn1cc(CNC[C@H]2O[C@@H](n3ccc(N)nc3=O)[C@H](O)[C@@H]2O)c(C)n1 0.77%
COc1ccc2cc(OCC(=O)NNC(=O)Nc3ccc(OC)c(OC)c3)ccc2c1 17.7%
COc1ccc2cc(CN(C)C(=O)CN3C(=O)NC4(CCCC4)C3=O)ccc2c1 20.2%
Cn1ccnc1Sc1nc2c(c(=O)n(C)c(=O)n2C)n1C 1.94%
CC(C)CN(CC(C)C)C(=O)C12CCC(C)(C(=O)C1)C2(C)C (stereo not drawn) -15.8%
COC(=O)Cc1c(OC)ccn(CCc2c[nH]c3ccccc23)c1=O 8.25%
COc1ccc2[nH]c(=O)c(CNc3ccccc3)cc2c1 9.73%
Nc1ccc(Nc2ccc([N+](=O)[O-])cc2[N+](=O)[O-])cc1 25.4%
COc1cc(/C=N/Nc2ncnc3sc4c(c23)CCC4)ccc1O 6.14%

Reference: PubChem BioAssay AID624330 (Southern Research Specialized Biocontainment Screening …, 2012)
